# Screen size: about 310,000 compounds; about 2,200 (0.71%) showed an effect of 50% or more. Effects have a minus sign here. Some of the results follow.
# Target: human ether-à-go-go-related gene (hERG) potassium channel (human, UniProt Q12809)
# Assay: primary screen, population patch clamp on CHO cells stably expressing hERG
# Sequence of human ether-à-go-go-related gene (hERG) potassium channel (Q12809 whole entry, looked up): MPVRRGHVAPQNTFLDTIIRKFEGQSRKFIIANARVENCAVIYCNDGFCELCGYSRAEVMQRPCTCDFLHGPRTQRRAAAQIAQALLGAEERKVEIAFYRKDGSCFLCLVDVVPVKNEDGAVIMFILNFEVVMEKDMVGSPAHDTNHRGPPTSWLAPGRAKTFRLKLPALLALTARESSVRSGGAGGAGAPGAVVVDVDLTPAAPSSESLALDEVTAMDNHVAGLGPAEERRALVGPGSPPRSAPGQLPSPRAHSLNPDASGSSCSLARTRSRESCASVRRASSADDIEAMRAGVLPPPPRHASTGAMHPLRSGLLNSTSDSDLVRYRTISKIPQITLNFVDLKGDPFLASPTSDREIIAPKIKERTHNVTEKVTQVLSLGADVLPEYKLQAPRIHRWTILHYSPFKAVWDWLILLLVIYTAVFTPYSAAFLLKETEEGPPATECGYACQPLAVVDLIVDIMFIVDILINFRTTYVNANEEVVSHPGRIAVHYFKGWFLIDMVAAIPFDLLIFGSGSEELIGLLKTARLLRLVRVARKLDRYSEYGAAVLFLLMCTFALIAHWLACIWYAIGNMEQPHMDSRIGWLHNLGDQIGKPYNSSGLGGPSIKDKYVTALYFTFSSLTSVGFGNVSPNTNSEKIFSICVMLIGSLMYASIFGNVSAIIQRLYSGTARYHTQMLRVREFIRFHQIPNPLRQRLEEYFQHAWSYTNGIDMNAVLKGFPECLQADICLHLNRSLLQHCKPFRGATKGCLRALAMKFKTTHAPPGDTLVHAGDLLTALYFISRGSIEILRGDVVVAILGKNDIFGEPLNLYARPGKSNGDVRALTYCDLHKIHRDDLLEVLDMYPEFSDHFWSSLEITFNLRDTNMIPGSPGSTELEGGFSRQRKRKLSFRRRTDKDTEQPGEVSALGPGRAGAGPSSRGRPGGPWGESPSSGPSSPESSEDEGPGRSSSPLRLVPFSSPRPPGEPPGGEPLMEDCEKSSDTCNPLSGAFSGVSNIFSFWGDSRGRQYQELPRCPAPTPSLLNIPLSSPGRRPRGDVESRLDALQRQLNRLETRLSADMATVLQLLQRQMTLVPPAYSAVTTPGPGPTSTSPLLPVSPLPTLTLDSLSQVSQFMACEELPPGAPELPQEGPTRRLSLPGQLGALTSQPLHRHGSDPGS
row,Compound,"hERG current change (%, negative = inhibition) at 1uM [%]"
1,CCOC(=O)C1CCCCN1Cc1ccc(F)c(Br)c1 (centres unmarked),-0.105
2,O=C(CSc1nnc2c(Cl)cc(C(F)(F)F)cn12)N(Cc1ccccc1)Cc1ccccc1,1.3
3,COc1ccccc1-c1nnc2sc(-c3ccc(N(C)C)cc3)nn12,2.77
4,O=C(CCn1c(=S)oc2ccccc21)Nc1cccc(O)c1,23.4
5,CC(C)(Oc1ccc(Cl)cc1)C(=O)NNC(=O)c1ccc(Br)o1,11.5
6,C=C(C)CN1CCN(S(=O)(=O)c2ccc(C)c(N(C)S(=O)(=O)c3ccc(C)cc3)c2C)CC1,14
7,O=C(Nc1ccc(O)c(C(=O)O)c1)c1ccc2c(c1)C(=O)N(CC1CCCO1)C2=O (centres unmarked),8.61
8,CC(=O)Nc1ccc(NC(=O)C(C)OC(=O)/C=C/c2cccs2)cc1 (centres unmarked),5.49
9,O=C(Nc1nnc(-c2ccc(Cl)cc2)o1)c1cccc(N2C(=O)CCC2=O)c1,10.4
10,CC(C)C(=O)N1CCC(c2nc(-c3ccc(S(=O)(=O)N4CCCC4)cc3)no2)CC1,9.81
11,Cc1cc(C)c(C2C(C#N)=C(N)Oc3n[nH]c(C)c32)cc1CN1CCCC1 (centres unmarked),3.82
12,Cc1cccnc1NC(=O)Nc1ccc(Cl)cc1,13.2
13,Cc1cccc(C(=O)N[C@H](C(=O)Nc2nc(C)cs2)C(C)C)c1,8.84
14,COc1ccc(C(=O)NCC(c2cccnc2)N2CCN(c3ccccc3)CC2)cc1OC (centres unmarked),10.6
15,COC(=O)c1ccc(NC(=O)CSc2nnc(COc3ccccc3)n2C)cc1,14.8
16,COc1ccccc1NS(=O)(=O)c1cccc(C(=O)N2CCCCCCC2)c1,-0.11
17,COC(=O)C1=C(C)N(C)C(C)=C(C(=O)OC)C1c1ccc(C(=O)OC)cc1,14.3
18,C=CC[C@@H]1C=C[C@H](O/N=C/c2ccc(C(=O)N3[C@H](c4ccc(C)cc4)[C@@H](C)CC[C@H]3C(=O)OC)cc2)[C@@H](CO)O1,9.16
19,O=C(c1ccc(Br)o1)N1CCN(C/C=C/c2ccccc2)CC1,-10.4
20,CN(C)/C=C/C(=O)c1ccc2noc(-c3ccccc3)c2c1,-11.6
21,Cc1cc(=O)oc2cc(OC(C)C(=O)NCC3CCC(C(=O)O)CC3)ccc12 (centres unmarked),-6.84
22,COc1ccc(C2c3ccsc3CCN2C(=O)C(C)(C)C)cc1 (centres unmarked),13.4

row,Compound,"hERG current change (%, negative = inhibition) at 1uM [%]"
1,COc1cc(C(=O)NCC(=O)N/N=C/c2cccnc2)cc(OC)c1OC,8.35
2,Cc1ccc(CN2CC(C(=O)NNC(=O)c3ccc(F)cc3)CC2=O)cc1 (centres unmarked),12.7
3,CN(C(=O)COC(=O)C1c2ccccc2Oc2ccccc21)C1CCS(=O)(=O)C1 (centres unmarked),13
4,O=C(NCc1ccccc1Cl)NCc1ccccc1Cl,10.8
5,Cc1oc2ccc(OCc3ccc(F)cc3)cc2c1C(=O)O,2.14
6,O=C(CCN1CCCCC1)N/N=C/c1c[nH]c2ccccc12,8.37
7,CCCCc1nnc(NC(=O)C(C)Sc2nc(N)cc(=O)[nH]2)s1 (centres unmarked),1.63
8,COc1cccc(C(=O)N/N=C/C(Br)=C/c2ccccc2)c1,-4.43
9,COc1ccc(NC(=O)CCCN2C(=O)CN(C)C2=O)c(OC)c1,4.31
10,Cc1ccc(C)c(S(=O)(=O)N2CCCCC2CCNC(=O)C(=O)NCc2ccncc2)c1 (centres unmarked),-5.08
11,N#CC1(NC(=O)CSc2n[nH]c(-c3ccccc3)n2)CCCCC1,3.94
12,CC(C)Cc1nnc(NC(=O)CSc2nc(O)c(Cc3ccccc3)c(=O)[nH]2)s1,21.9
13,O=C(CSc1nc2ccccc2n1CC(=O)N1CCCC1)Nc1ccc2c(c1)OCO2,-10.9
14,CC(C)(C)c1ccccc1NC(=S)NC1CCCCC1,5.01
15,COc1ccc(CC(=O)NCC(=O)NC(Cc2ccccc2)C(=O)O)cc1 (centres unmarked),15
16,COCCN(Cc1cc2cc(C)ccc2[nH]c1=O)S(=O)(=O)c1ccc(Cl)cc1,15.2
17,CCOCCCNC(=O)C1CCN(c2cc(C)nc3c(-c4ccc(OC)c(OC)c4)c(C)nn23)CC1,1.81
18,O=C1CS/C(=N\C(=O)N2c3ccccc3Sc3ccccc32)N1,13.6
19,C=CCOC(=O)c1[nH]c2c(c1C)C(=O)CC(c1ccco1)C2 (centres unmarked),-1.07
20,O=C(O)CCC(=O)NCC1OCCc2ccccc21 (centres unmarked),13.7
21,O=C(NCCc1ccccc1)c1cc(=O)c2ccccc2o1,4.61
22,CCC(=O)Nc1cc(NC(=O)CSc2ncc(-c3ccc(F)cc3)n2Cc2ccco2)ccc1C,16.2

# From PMC4336329 (PLoS ONE, 2015)
